The results in this text go back to publication PMC4336329 (PLoS ONE, 2015).

In all, about 310,000 compounds went through this assay and about 14,000 (4.5%) showed an effect of 50% or more. The effect is printed as a negative number. The list shows a part of the results.
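Note: peak tail current of the secondary pulse compared with the same well before compound.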

Sequence of human ether-à-go-go-related gene (hERG) potassium channel (Q12809 whole entry, looked up): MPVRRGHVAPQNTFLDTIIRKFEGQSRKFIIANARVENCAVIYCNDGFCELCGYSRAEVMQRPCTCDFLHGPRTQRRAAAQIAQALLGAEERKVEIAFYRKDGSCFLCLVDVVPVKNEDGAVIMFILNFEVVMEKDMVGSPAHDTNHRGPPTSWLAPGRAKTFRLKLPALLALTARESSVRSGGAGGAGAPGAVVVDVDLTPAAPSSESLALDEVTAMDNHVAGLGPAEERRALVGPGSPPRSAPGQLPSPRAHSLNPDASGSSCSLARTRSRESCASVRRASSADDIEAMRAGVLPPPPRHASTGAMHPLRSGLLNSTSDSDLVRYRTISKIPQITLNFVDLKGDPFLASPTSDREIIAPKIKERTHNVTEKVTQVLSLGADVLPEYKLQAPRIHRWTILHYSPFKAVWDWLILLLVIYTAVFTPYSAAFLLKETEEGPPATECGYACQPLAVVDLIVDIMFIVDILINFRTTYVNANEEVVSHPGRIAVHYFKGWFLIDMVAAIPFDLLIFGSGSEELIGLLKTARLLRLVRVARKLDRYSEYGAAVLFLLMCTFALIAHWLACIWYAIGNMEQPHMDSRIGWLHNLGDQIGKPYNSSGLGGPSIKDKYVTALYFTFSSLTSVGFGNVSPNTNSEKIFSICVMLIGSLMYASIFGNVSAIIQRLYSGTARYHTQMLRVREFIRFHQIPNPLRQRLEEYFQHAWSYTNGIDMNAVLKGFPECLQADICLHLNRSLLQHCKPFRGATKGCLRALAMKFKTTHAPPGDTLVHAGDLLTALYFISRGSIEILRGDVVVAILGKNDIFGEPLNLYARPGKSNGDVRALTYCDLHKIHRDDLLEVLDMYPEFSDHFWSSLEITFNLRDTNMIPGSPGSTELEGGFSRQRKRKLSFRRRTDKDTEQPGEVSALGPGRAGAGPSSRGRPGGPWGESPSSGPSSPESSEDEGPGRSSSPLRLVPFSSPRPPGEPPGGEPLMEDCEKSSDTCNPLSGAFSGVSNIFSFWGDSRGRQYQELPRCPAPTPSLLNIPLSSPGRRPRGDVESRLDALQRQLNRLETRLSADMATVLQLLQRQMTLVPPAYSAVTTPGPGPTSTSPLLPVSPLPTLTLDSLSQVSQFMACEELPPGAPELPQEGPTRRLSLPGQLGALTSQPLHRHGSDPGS

The assay concerns the target human ether-à-go-go-related gene (hERG) potassium channel (human, UniProt Q12809). Kind of assay: primary screen, population patch clamp on CHO cells stably expressing hERG.
For the molecule `O=C(CSc1nc2ccccc2[nH]1)N1CCN(c2ccc(F)cc2)CC1`, the “hERG current change (%, negative = inhibition) at 10uM” value was -55.6%. With `Cc1ccc(C(=O)CSc2nnc(-c3ccccc3)o2)cc1` the figure was -0.101%; with `COC(=O)c1ccc(NC(=O)c2ccccc2SC)cc1`, -21.5%; with `O=C(O)CCN1C(=O)c2ccccc2C1=O`, 26%. With `CN(C(=O)Cn1c(Cl)nc2c1c(=O)n(C)c(=O)n2C)C1CCS(=O)(=O)C1` (stereo not shown) the figure was 19.3%; with `Cc1ccc(NC(=O)CSC2=NN3CCCC(=O)N=C3S2)c(C)c1`, -7.61%. In the case of `C=CCn1c(=O)c(C#N)cc2c(=O)n3ccccc3nc21`, the “hERG current change (%, negative = inhibition) at 10uM” value is on record as -1.57%. Next, `O=C(O)CCc1nn2cnc3sc4c(c3c2nc1=O)CCCC4`: -2%; `Cc1ccc(S(=O)(=O)N2CCC(C(=O)NCC3CC3)CC2)cc1`: -10.3%. With `O=C(Nc1ccc(Br)cc1F)c1ccc2c(c1)OCCO2`, the “hERG current change (%, negative = inhibition) at 10uM” value came out at 12.3%. Take `CCN(CC)CCn1c(NCc2cccc(OC)c2OC)nc2ccccc21`: the “hERG current change (%, negative = inhibition) at 10uM” value is given as -47%.

With `Cc1ccc(C)c(OCC(O)CNC2CCCC2)c1.Cl` (stereo not shown), the “hERG current change (%, negative = inhibition) at 10uM” value is 8.8%. With `Cc1c(C(=O)OCC(=O)N2CC(=O)Nc3ccccc32)oc2ccccc12` the figure was 18.4%; with `Cc1cc2[nH]c3ccccc3c2cn1`, -12.3%. With `CCN1CCN(c2ccc([N+](=O)[O-])cc2C#N)CC1` the figure was -68.2%; with `Cc1nccn1CC(O)Cn1c2ccccc2c2ccccc21` (stereo not shown), -24.1%.

As for `O=C(NC1CCCc2c1cnn2-c1ccccc1F)c1ccccn1` (stereo not shown), the “hERG current change (%, negative = inhibition) at 10uM” value was determined as 5.09%. Next, `CCCN(CC(=O)Nc1ccccc1OC)C(=O)c1cc(S(=O)(=O)NCc2ccccc2)ccc1C`: -2.38%. With `CC(=O)c1cccc(NC(=O)C2CCCN(S(=O)(=O)c3cccc4nonc34)C2)c1` (stereo not shown) the figure was 13.9%; with `Brc1nnc2n1-c1ccccc1Sc1ccccc1-2`, -71.8%; with `O=C(O)c1ccc2c(c1)nnn2C1CCCCC1`, 14.9%.

Take `O=C(Nc1ccc(S(=O)(=O)Nc2ncccn2)cc1)c1nn(Cc2ccccc2)c(=O)c2ccccc12`: the “hERG current change (%, negative = inhibition) at 10uM” value was -1.68%.

`CCOP(=O)(OCC)C1(O)C(=O)Nc2ccccc21` (stereo not shown): the “hERG current change (%, negative = inhibition) at 10uM” value is -6.02%. Next, `O=C(NCC1CCN(c2ccc(S(=O)(=O)N3CCOCC3)cc2)CC1)c1ccc(Cl)cc1`: -57.2%.

Regarding `Cc1ccc(NC(=O)C2CC(=O)N(C(C)c3ccccc3)C2)cc1` (stereo not shown), the “hERG current change (%, negative = inhibition) at 10uM” value is 4.78%. With `O=C(NCc1cccnc1)c1ccc(NC(=O)c2ccc([N+](=O)[O-])cc2)cc1` the figure was 9.09%; with `COCCN1C(=O)N[C@@H](c2cccs2)C(C(C)=O)=C1C`, 10.4%. With `O=C(CCCN1C(=O)/C(=C/c2cccs2)SC1=S)Nc1cccc(C(=O)O)c1` the figure was 5.62%; with `CCCNS(=O)(=O)c1ccc(CCC(=O)N2CCC(C)CC2)cc1`, -2.41%; with `O=C(CCc1nc2cccnc2n1Cc1ccccc1)N1CCOCC1`, -39.4%.

`COc1ccc(S(=O)(=O)/C(C#N)=C/Nc2cccc(OC)c2)cc1`: the “hERG current change (%, negative = inhibition) at 10uM” value turned out to be 11.2%. With `CCC(=O)Nc1ccc(Cl)c(NC(=O)c2ccc(Br)o2)c1` the figure was -5.42%.

As for `CCNc1nc(NCC)nc(N(C)/N=C/c2ccco2)n1`, the “hERG current change (%, negative = inhibition) at 10uM” value is -10.7%. Regarding `COc1ccc(NC(=O)CN(C)C(=O)c2cccc(S(=O)(=O)N3CCN(c4ccccc4)CC3)c2)cc1`, the “hERG current change (%, negative = inhibition) at 10uM” value was -3.62%. `CCOC(=O)N1CCC(NC(=O)CN2C(=O)CCSc3ccccc32)CC1`: the “hERG current change (%, negative = inhibition) at 10uM” value is -2.52%. Next, `COc1ccc(/C=N/NC(=O)c2ccc(Cl)cc2Cl)cc1COC(C)=O`: -8.47%; `CC1=C(C#N)C(NC(=O)C2CCCCC2)(C(F)(F)F)C(=O)N1` (stereo not shown): 11.3%; `CCOc1ccccc1N(C(=O)c1ccco1)C(C(=O)NC1CCCC1)c1cccs1` (stereo not shown): -23%. Turning to `Cc1ccc2c(COC(=O)CC3Sc4ccccc4NC3=O)cc(=O)oc2c1C` (stereo not shown), the “hERG current change (%, negative = inhibition) at 10uM” value is given as 22.7%. Next, `O=C(c1ccc(C(=O)N2CCCc3ccccc32)nc1)N1CCCc2ccccc21`: -9.08%; `CCCCNc1ncnc2c1cnn2-c1ccc(C)cc1C`: -21.7%; `CCN(CC)S(=O)(=O)c1ccc(S(=O)(=O)NCc2cccs2)cc1`: 7.17%. Next, `CC(Oc1ccc(Cl)cc1)C(=O)N1CCCc2ccccc21` (stereo not shown): 7.39%. Next, `O=C(CN1CCN(CC(=O)Nc2ccccc2Cl)CC1)Nc1ccc(F)c(F)c1`: -78.2%; `CC(=O)c1cccc(N2Cc3ccccc3C2=NC(=O)CCl)c1`: 11.1%.

With `Clc1nccnc1N/N=C/c1ccc(Br)cc1`, the “hERG current change (%, negative = inhibition) at 10uM” value is -50.3%. With `CS(=O)(=O)N(Cc1ccc(F)cc1)Cc1nc2ccccc2c(=O)[nH]1` the figure was -0.244%; with `COc1cccc(Cn2cccc(NC(=O)NCc3ccccc3)c2=O)c1`, -3.25%.

As to `O=C(O)CN1C(=O)NC2(CCOc3ccccc32)C1=O` (stereo not shown), the “hERG current change (%, negative = inhibition) at 10uM” value is 5.8%. With `Cc1c(Cl)cccc1Nc1nc(NCCO)c2ccccc2n1.Cl` the figure was -27.2%; with `Cc1ccc(NC(=O)C(Cc2ccccc2)n2cccc2)cc1` (stereo not shown), 3.37%; with `c1ccc(CCCN2CCN(c3ccccn3)CC2)cc1`, -51.7%. Next, `CSc1c(CC(=O)Nc2ccccc2)n(Cc2ccccc2)c2ccccc12`: 6.9%. With `COc1ccc(CN(C)C(=O)COC(=O)c2ccc3c(c2)OCO3)cc1OC` the figure was -3.84%; with `COc1cccc(C2C(C(C)=O)=C(O)C(=O)N2Cc2ccco2)c1` (stereo not shown), 19.2%; with `c1ccc(CCNc2nc3ccccc3s2)cc1`, -3.17%.

As to `COCCN(C(=O)CSc1nnc(-c2ccccc2F)n1N)c1c(N)n(Cc2ccccc2)c(=O)[nH]c1=O`, the “hERG current change (%, negative = inhibition) at 10uM” value stood at 5.14%. Next, `COc1cc(/C=C2\SC(N)=NC2=O)ccc1OCC(=O)Nc1ccc(C)cc1`: -5.51%; `O=C(NOC(=O)c1c(F)cccc1Cl)c1ccc(Cl)c(Cl)c1`: 17.8%. Next, `COc1ccc(Cl)cc1N(C(=O)Nc1cccc(Cl)c1)C1=NCC(C)S1` (stereo not shown): 12.9%; `OCCc1ccc(O)cc1`: 12.4%; `Cc1nnc(NC(=O)c2ccc3ccccc3c2)s1`: 23%. With `COc1ccc(S(=O)(=O)N(CC(=O)NN=C2CCN(C)CC2)c2cc(Cl)ccc2OC)cc1OC`, the “hERG current change (%, negative = inhibition) at 10uM” value amounted to 7.51%. Next, `O=C(OCc1cnc(Cl)s1)c1cccs1`: 3.18%; `Cc1ccc(N(C(=O)c2snc(C(N)=O)c2N)C(CC(C)C)C(=O)NC2CCCC2)cc1` (stereo not shown): -19.5%; `COCCOc1cc(NC(=O)c2ccccc2)c(Cl)cc1Cl`: -8.47%. For the molecule `CCN(CCCNC(=O)CCNC(=O)Cn1cnc2ccccc2c1=O)c1ccccc1`, the “hERG current change (%, negative = inhibition) at 10uM” value is recorded as -6.94%. With `CCOc1ccc(C(Nc2ccc(C)cc2)P2(=O)OCC(C)(C)CO2)cc1` (stereo not shown), the “hERG current change (%, negative = inhibition) at 10uM” value is recorded as 4.67%. With `O=C(Cc1ccccc1F)Nc1cc(Cl)ccc1N1CCCC1` the figure was 15.2%; with `COc1ccc(CCC(=O)NCCNC(=O)CCc2ccc(OC)cc2)cc1`, 12%.

Consider `O=C(NCCC(c1ccccc1)c1ccccc1)c1cccs1`, for which the “hERG current change (%, negative = inhibition) at 10uM” value is listed as -14.2%. Next, `OC[C@H]1O[C@@H](Oc2cc(O)cc(/C=C/c3ccc(O)cc3)c2)[C@H](O)[C@@H](O)[C@@H]1O`: 7.67%. Next, `COc1ccc(C2C(O)C(c3c[nH]c4ccccc34)=NN2C(=O)CCl)cc1` (stereo not shown): 11.5%; `O=C(/C=C/c1cccc([N+](=O)[O-])c1)NCCN1CCOCC1`: -2.6%. Next, `N#Cc1c(NC(=O)c2ccc(-c3ccccc3[N+](=O)[O-])o2)sc2c1CCCC2`: -1.1%; `O=[N+]([O-])C(/C=C(/Cl)[N+](=O)[O-])=C(N1CCCCC1)N1CCCCC1`: -4.21%. For the molecule `O=S(=O)(c1ccc(NCCOc2ccccc2)nc1)N1CCCC1`, the “hERG current change (%, negative = inhibition) at 10uM” value is reported as -21.3%. With `COC(CNC(=O)C1CC(=O)N(CCc2ccc(C)cc2)C1)OC` (stereo not shown) the figure was 7.72%; with `NS(=O)(=O)c1ccc(C(=O)Nc2ccc(-c3nc4cccnc4s3)cc2)cc1`, 14.4%; with `O=C1c2oc3ccccc3c(=O)c2C(c2cccc(F)c2)N1CCCO` (stereo not shown), -6.7%. As to `CCOC(=O)c1ccc(-n2[nH]c(-c3ccccc3)cc2=O)cc1`, the “hERG current change (%, negative = inhibition) at 10uM” value is 3.61%. Next, `CCOc1ccc(OCCCC(=O)N(C)CC(=O)Nc2ccc(N3CCOCC3)cc2)cc1`: -15.4%; `N#Cc1ccc(C2=CC(=O)C[C@H](c3ccc(F)cc3)C2)cc1`: -72.1%; `CC(=O)Nc1ccc(S(=O)(=O)Nc2nc3n(n2)C(c2ccccc2)CC(=O)N3)cc1` (stereo not shown): 5.99%. With `CCCC(=O)OCCNc1cc(Sc2nc3ccccc3[nH]2)c2nonc2c1[N+](=O)[O-]` the figure was 2%; with `O=C(NCCc1ccccc1)C1CCCN1S(=O)(=O)c1ccc(F)cc1` (stereo not shown), 2.24%; with `COc1cc(C(=O)OC(C)CN2CCCCC2)cc(OC)c1OC.Cl` (stereo not shown), -4.43%.

`Cc1nc(SCc2ccccc2)[nH]c(=O)c1CC(=O)OCC(C)C`: the “hERG current change (%, negative = inhibition) at 10uM” value is reported as 15.5%.
